Columns and labels:
PD-1-mFc [1] = biological target: T1, PD-1-mFc (human, UniProt Q15116 in part, limits assumed); experiment: ELISA, PD-1-mFc coated
T1 construct: also called human PD-1-mFc
Method: (§1) Then the microplate coated with antigens was washed once with PBST, and then blocked with a PBS solution containing 1% BSA as blocking solution at 37° C. for 2 h. After blocking, the microplate was washed 3 times with PBST. The microplate containing the test antibodies was incubated at 37° C. for 30 min, and then washed 3 times with PBST. […] The microplate was put into a microplate reader immediately, and the OD value of each well in the microplate was read at 450 nm. The data were analyzed and processed by SoftMax Pro 6.2.1.

[2] = biological target: T2, CD73 on cell membrane surface (MDA-MB-231, U87-MG) (human, UniProt P21589 27-549); experiment: cell-based or functional assay
T2 sequence (looked up): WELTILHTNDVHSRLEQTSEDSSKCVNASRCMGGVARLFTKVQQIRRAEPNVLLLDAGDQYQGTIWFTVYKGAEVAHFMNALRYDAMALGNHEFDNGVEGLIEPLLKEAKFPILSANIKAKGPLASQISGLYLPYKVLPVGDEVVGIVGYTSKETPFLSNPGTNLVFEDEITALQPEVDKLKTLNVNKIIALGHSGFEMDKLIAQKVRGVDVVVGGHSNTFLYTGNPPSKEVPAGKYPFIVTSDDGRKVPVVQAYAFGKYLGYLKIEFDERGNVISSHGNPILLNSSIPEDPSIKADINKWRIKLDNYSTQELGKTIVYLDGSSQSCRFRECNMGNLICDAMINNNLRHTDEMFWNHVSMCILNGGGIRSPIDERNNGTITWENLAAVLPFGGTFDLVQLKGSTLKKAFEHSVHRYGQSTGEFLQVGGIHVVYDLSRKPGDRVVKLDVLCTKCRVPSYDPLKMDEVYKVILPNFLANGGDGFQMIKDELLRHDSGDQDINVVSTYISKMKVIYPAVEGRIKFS

human NT5E-Biotin = biological target: T3, human NT5E-Biotin (human, UniProt P21589 27-552, limits assumed, biotin label, site not stated); experiment: ELISA, NT5E-biotin on streptavidin
T3 construct: Captured on streptavidin-coated plates; also called human NTSE-Biotin
T3 sequence (looked up): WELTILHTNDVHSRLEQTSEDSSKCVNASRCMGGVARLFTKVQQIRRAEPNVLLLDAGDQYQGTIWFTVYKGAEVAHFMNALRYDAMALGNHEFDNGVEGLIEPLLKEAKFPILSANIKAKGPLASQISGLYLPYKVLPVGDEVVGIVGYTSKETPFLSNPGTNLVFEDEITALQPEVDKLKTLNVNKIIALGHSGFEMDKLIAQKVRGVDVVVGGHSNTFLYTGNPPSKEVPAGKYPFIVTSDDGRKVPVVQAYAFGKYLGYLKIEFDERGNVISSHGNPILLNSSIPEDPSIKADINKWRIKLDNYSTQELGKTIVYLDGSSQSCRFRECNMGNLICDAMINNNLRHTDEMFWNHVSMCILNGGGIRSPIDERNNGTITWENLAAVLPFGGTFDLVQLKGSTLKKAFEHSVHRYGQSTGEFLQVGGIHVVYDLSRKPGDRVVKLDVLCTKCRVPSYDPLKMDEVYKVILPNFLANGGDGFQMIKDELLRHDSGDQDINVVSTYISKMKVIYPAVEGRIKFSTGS
Method: After incubation, the microplate coated with streptavidin was washed once with PBST, and blocked with a PBS solution containing 1% BSA as a microplate blocking solution at 37° C. for 2 h. After blocking, the microplate was washed 3 times with PBST. […] Then, the plate was washed 3 times with PBST. […] The microplate containing the test antibodies was incubated at 37° C. for 30 min, and then washed 3 times with PBST. […] The microplate was put into a microplate reader immediately, and the OD value of each well in the microplate was read at 450 nm. The data were analyzed and processed by SoftMax Pro 6.2.1.

PD-1-mFc [3] = biological target: T1, PD-1-mFc; experiment: ELISA, PD-1-mFc coated; antibody 5 nM
Method: as §1

PD-1-mFc [4] = biological target: T1, PD-1-mFc; experiment: BLI (Fortebio), PD1-mFc on AMC sensor, antibody 0.62-50 nM, 30 C
Method: The sample dilution buffer was PBS (0.02% Tween-20, 0.1% BSA, pH 7.4). […] The data were analyzed by 1:1 model fitting to obtain affinity constants.

human NT5E(1-552)-his = biological target: T4, human NT5E(1-552)-his (human, UniProt P21589 27-552); experiment: BLI (Fortebio), NT5E(1-552)-his on HIS1K sensor, antibody 0.31-25 nM, 30 C
T4 construct: The entry starts at Met 1
T4 sequence: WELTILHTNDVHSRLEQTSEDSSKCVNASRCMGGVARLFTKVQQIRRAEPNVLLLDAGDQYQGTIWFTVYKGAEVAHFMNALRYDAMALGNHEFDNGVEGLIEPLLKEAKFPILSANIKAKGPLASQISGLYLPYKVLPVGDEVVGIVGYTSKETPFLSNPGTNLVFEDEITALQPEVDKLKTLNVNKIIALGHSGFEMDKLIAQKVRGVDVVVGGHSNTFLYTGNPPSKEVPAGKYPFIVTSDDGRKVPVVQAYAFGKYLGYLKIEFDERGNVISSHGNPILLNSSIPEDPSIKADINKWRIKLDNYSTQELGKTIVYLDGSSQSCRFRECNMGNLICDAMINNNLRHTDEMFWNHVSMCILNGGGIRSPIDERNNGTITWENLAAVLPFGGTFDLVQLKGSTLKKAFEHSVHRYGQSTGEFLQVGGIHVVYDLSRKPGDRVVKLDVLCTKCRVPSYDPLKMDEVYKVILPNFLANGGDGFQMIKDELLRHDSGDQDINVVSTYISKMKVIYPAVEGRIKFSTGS
Method: The sample dilution buffer was PBS (0.02% Tween-20, 0.1% BSA, pH 7.4). […] The protein was dissociated in the buffer for 180 s. […] The data were analyzed by 1:1 model fitting to obtain affinity constants.

human PD-1-mFc-biotin [5] = biological target: T5, human PD-1-mFc-biotin (human, UniProt Q15116 in part, limits assumed, biotin label, site not stated); experiment: competitive ELISA, blocking of PD-1-mFc-biotin binding to coated PD-L1-mFc
Method: (§2) After incubation, the microplate was blocked with a PBS solution containing 1% BSA at 37° C. for 2 h. […] The antibody was serially diluted to 7 concentrations in a gradient ratio of 1:3 on a dilution plate with 10 μg/mL as the starting concentration, and a blank control was set. […] Then the mixture after reaction was added to the coated microplate, and the microplate was incubated for at 37° C. for 30 min. After incubation, the plate was washed three times with PBST and dried. SA-HRP (KPL, 14-30-00) working solution was added, and the plate was incubated at 37° C. for 30 min. After incubation, the plate was washed four times and patted dry. Then TMB (Neogen, 308177) was added in the dark for chromogenesis for 5 min, and a stop solution was added to terminate chromogenic reaction. Then the microplate was put into a microplate reader immediately, and the OD value of each well in the microplate was read at 450 nm. The data were analyzed and processed by SoftMax Pro 6.2.1.

human PD-1-mFc-biotin [6] = biological target: T5, human PD-1-mFc-biotin; experiment: competitive ELISA, competitor coated PD-L1-mFc; antibody 50 nM diluted 1:9
Method: as §2

T1 sequence (Q15116 other isoform, or with tags, fused parts or gaps limits assumed): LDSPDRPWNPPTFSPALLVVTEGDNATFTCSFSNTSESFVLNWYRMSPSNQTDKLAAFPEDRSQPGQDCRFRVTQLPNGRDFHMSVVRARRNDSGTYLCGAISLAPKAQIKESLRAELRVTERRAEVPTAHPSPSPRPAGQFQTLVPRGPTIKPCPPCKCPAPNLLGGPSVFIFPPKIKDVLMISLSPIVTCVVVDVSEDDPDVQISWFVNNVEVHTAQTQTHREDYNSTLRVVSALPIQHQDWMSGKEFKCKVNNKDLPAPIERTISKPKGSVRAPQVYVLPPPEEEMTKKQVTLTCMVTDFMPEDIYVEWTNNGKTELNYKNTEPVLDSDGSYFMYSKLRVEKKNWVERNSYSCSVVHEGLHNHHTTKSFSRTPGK
T5 sequence (Q15116 other isoform, or with tags, fused parts or gaps limits assumed): as above

- EC50 (PD-1-mFc [1]): 0.119 nM
- IC50 (nM), inhibition of enzyme activity of CD73 on U87-MG cell membrane surface [2]: 0.555 nM
- EC50 (human NT5E-Biotin): 0.082 nM
- OD450 (PD-1-mFc [3]): 2.25 OD
- Kd (PD-1-mFc [4]): 0.0739 nM
- koff (PD-1-mFc [4]): 5.05e-05 s⁻¹
- kon (PD-1-mFc [4]): 683000 M⁻¹ s⁻¹
- Kd (human NT5E(1-552)-his): 0.0288 nM
- koff (human NT5E(1-552)-his): 3.66e-05 s⁻¹
- kon (human NT5E(1-552)-his): 1.27e+06 M⁻¹ s⁻¹
- EC50 (human PD-1-mFc-biotin [5]): 2.33 nM
- OD450 (human PD-1-mFc-biotin [6]): 0.204 OD
B1: NTPDV2 (bispecific antibody, human IgG1, kappa)
heavy: QVQLVQSGAEVVKPGASVKVSCKASGYSFTGYTMNWVRQAPGQNLEWIGLINPYNAGTSYNQKFQGKVTLTVDKSTSTAYMELSSLRSEDTAVYYCARSEYRYGGDYFDYWGQGTTLTVSSASTKGPSVFPLAPSSKSTSGGTAALGCLVKDYFPEPVTVSWNSGALTSGVHTFPAVLQSSGLYSLSSVVTVPSSSLGTQTYICNVNHKPSNTKVDKKV[human IgG1 Fc with L234A L235A G237A (EU numbers) omitted]GGGGSGGGGSGGGGSGGGGSEVQLVESGGGLVQPGGSLRLSCAASGFAFSSYDMSWVRQAPGKGLDWVATISGGGRYTYYPDSVKGRFTISRDNSKNNLYLQMNSLRAEDTALYYCANRYGEAWFAYWGQGTLVTVSSGGGGSGGGGSGGGGSGGGGSDIQMTQSPSSMSASVGDRVTFTCRASQDINTYLSWFQQKPGKSPKTLIYRANRLVSGVPSRFSGSGSGQDYTLTISSLQPEDMATYYCLQYDEFPLTFGAGTKLELKR
light: DIVMTQSPSSLAVSVGERVTISCKSSQSLLNSSNQKNYLAWYQQKPGQAPKLLIYFASTRESGVPDRFSGSGSGTDFTLTISSLQAEDVAVYYCQQHYDTPYTFGGGTKLEIKRTVAAPSVFIFPPSDEQLKSGTASVVCLLNNFYPREAKVQWKVDNALQSGNSQESVTEQDSKDSTYSLSSTLTLSKADYEKHKVYACEVTHQGLSSPVTKSFNRGEC
notes: also called NTPDV2(hG1TM)
